From the supplement of paper PMC10126150
Values marked as one replicate rest on one cluster of the flow cell; about a third of the high ones do not repeat.

System: ATP
Assay: switch fluorescence ratio, 500 uM ATP over buffer (Cy3 cluster intensity, sum of 5 cycles each) (fold (ratio)); higher = stronger signal-on switching upon ATP binding; sequences stand for … in TCGTCGGCAGCGTCAGATGTGTATAAGAGACAGTTTTTTTTTTTTTTTTTTTTTTTTT…TC
Settings: aptamer strand: ATP DNA aptamer (quencher-CACCTGGGGGAGTATTGCGGAGGAAGG + anchor), 100 nM annealed; ATP concentration: 500 uM; one replicate
Summary of the method: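 For every switch-domain sequence, the fluorescence ratio is the mean of per-cluster values, each being summed target-cycle Cy3 intensity over summed buffer-cycle Cy3 intensity. Clusters outside 100-1000 RFU were excluded. On a modified Illumina MiSeq flow-cell, the Cy3-labelled switching-strand clusters were annealed to 100 nM quencher-labelled ATP aptamer, imaged in selection buffer and then after 15 min with 500 uM ATP at 22 °C. Five such cycles were run, with NaOH stripping and re-annealing between them.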
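Further: ATP exposure 15 min at 22 °C before imaging.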

Sequence | switch fluorescence ratio
TATACTTCTG | 1.04
GTCGGCGCTG | 0.969
GCAGCTTGTG | 0.963
GGGAACAAAC | 0.944
TGTCGTGCGG | 0.995
ACTTTCTTTT | 0.952
TTGGAATTGG | 0.972
ATATAAGAGG | 0.977
AAGCTGCCTC | 1.53
CAGCCAAGTT | 0.973
TGGCCACTTG | 1.01
GAAATGAGCG | 1.02
GGTCAGTCGG | 0.993
GTTTTCTCGT | 0.95
AGGTGGATCC | 1
AAGCAAAGC | 1.11
AAGGGAGCAT | 3.47
CGGGGCAAGT | 1.07
GTTAGGTGTT | 1.09
ACATATAC | 1.34
AGCGCTCCGG | 0.995
CCTTACTGTG | 1.09
CAGTTACAGC | 1.05
ATGACCTGGT | 1.04
TGCGATTGAA | 1.01
ATTCTGGGCA | 1.04

Sequence | switch fluorescence ratio
AGGATTGACC | 0.998
AGTATGAAGA | 0.999
TTAGTGCGTT | 0.969
TTATCGGATG | 0.956
AAATCCATAC | 1.22
AATTTCTAGC | 0.948
AGAAGACTGG | 1.03
CGGGTCTTTA | 1
ACTTACAGTG | 1.13
GAATGATTGG | 0.979
CATAACTCTT | 1.04
AGAAACGTGC | 1.11
TTTTAGGCTA | 0.941
AAAGTATGGA | 0.957
CAAGCCGTT | 0.979
AGCGTCCGGT | 1.01
AAGACTATGC | 0.974
AACCTGGTTT | 1.03
CCTTCAAGCT | 1.63
CTCGGTCTTA | 1.01
ACCCTATTAC | 1.16
TTGATATGAA | 0.959
GCTATGTCAA | 0.945
ATGTTTGGCT | 1.01
AAACGAACAA | 1.14
CTCGATTTGC | 1.04

Sequence | switch fluorescence ratio
CACTTCTTAC | 1.14
TCACAGCTTA | 0.997
TTAGGGGTCA | 1
GCGGGAGGGC | 1.07
CATAGTAAGC | 1.1
TCAATGACGT | 1.01
TGATATTGGC | 0.937
TATATAAAGG | 1.04
GAGAGATGTG | 0.985
CGACTCAGAA | 1.07
ATTATAGGTA | 0.961
TTCCACTTAG | 1.05
ATCGGTGGGT | 1.03
GCCGCGCGAC | 1.26
GTGAGACAGA | 0.994
ATCAGTCAGG | 1.01
TCTTGGGTCT | 1.01
AAGCTTTGGC | 0.966
GCGAGTGTG | 0.996
AGATCGACCT | 1.21
GCAATGGGA | 1.35
AACCCGAATT | 1.01
AAGCGACTCA | 1.26
TCCATGGGCC | 0.98
ATTTTTGTAA | 1.03
TTTATATTTA | 0.975

Sequence | switch fluorescence ratio
CGATTGGCTA | 0.981
CTTGCTAATG | 1.01
TCCTCCTTTT | 1
ACCTGAGACA | 1.04
GGATATAGAT | 0.957
CTATATATGG | 0.962
GGGTCCAGTG | 1.02
GCGCTCATTA | 1.02
GCGTTATGGT | 0.974
GGACGAGTGC | 1.02
TTCGTTAGTG | 0.999
ACGTCGGAAG | 1
TATGACTGGA | 1
CTGCTGGGCC | 1.07
AGCATGAGGC | 0.964
CCATGGAGTG | 1.02
ACAGTGGTTC | 0.962
ATAAGATGGT | 1.07
TGTGAGGAGT | 1.01
GCCTTGCCAC | 1.09
GCATATGTCC | 1.07
TGGTCGAAAT | 0.991
TACTAAGGGT | 0.985
TAGGCGAGTC | 1.05
TGACTATATT | 1.06
GTGACAGCGT | 1.04

Sequence | switch fluorescence ratio
AAGTGCTCGC | 1.06
TACTGAGCGC | 1
CTTTGACTTT | 1.02
GCCGCTCTGA | 1.04
TCAGAGGGG | 0.982
ATGATTTTT | 1.02
GCATGGACTT | 1.02
GAACTGACGG | 1.22
TGAATAGGCG | 0.963
AATTAACACA | 1.03
ATACGATGCC | 1.09
TGTACAAGGG | 1.02
TTTGCGGTAC | 4.47
AAAGTGATCC | 1.17
TTCTCTAGGA | 1.02
AGGGCGCACA | 0.984
AGTGTTATGG | 0.987
TTAAGGCTTG | 0.997
TATAGAATAG | 1.04
CGATGCTCG | 0.949
TGGGTTCGCC | 0.977
GGGTGTTATC | 1
TACGGAAGGG | 1.05
GCTTGGGTT | 1.02
TGGTAGGTGC | 1.1
GAAAAACTTG | 1.01

Sequence | switch fluorescence ratio
GATCGGTTCA | 1.02
TAGTGCTTCC | 1.93
GGCGAAATT | 1.01
TCGGTCCGTG | 0.967
GGCGTCCCGG | 1.01
TTGGGCCTT | 1.18
AACCAGGGA | 1.08
GCGACGCCGC | 1.53
CCCGGTCGCC | 0.983
CAGGCCTATT | 1.03
CTCGGATCG | 0.957
GCTTACGTGA | 1.08
GCAGCAGTGG | 2.07
TAACGGTGGT | 1.02
CACTAAAATT | 0.967
ACACAGTGGT | 1.08
GAAACATCAA | 1.06
CTCGCTGGGG | 1
CAGCTGGTT | 0.997
GTCACTGGCA | 1.06
CATGTGGGTT | 0.993
GGTTCTTATC | 1.01
TGAAGGAATA | 1.07
CGTATAGCAG | 0.973
TCGGGACACG | 0.99
TCTCTACCTG | 1.03

Sequence | switch fluorescence ratio
CTGGGATTCG | 0.987
AAATCCAAAA | 1
AAGTTCGACC | 0.978
CTGTATCTT | 0.968
GACAGCACAT | 1.48
CTGATCCTTA | 0.988
ATGTGTTCCA | 0.985
GGGTTAGGG | 1.06
TTTGGGAGT | 1.03
TTTCTTTGG | 1.02
TAGTAGCCGT | 0.981
TTTTAGACTC | 1.05
GAGTCCAAGA | 1.23
CCCAACGACC | 2.27
CGGCTCAATG | 1.01
TGAGCTAGT | 0.959
GATCATTCTC | 0.986
AGGATTTTGC | 0.915
CGGGGTGACG | 1.24
CACCAACTA | 1.19
GTTAGGACGG | 0.972
ACGAGCATAT | 4.34
TCGTTATCG | 0.997
GTAAACATCC | 1.21
TAAGTCCAAG | 0.999
CATTTGTCAC | 1.04

Sequence | switch fluorescence ratio
AGTCGATAGT | 1.05
GACGGCCATT | 1.12
GATGGCAGGT | 1.02
AATAGACCCG | 1
AATTGTGAAC | 0.987
GATCGAGAGT | 0.963
TTGACAGATG | 0.993
CCTGTTGGTC | 0.984
GCACAGTTTT | 1
GATCAGTAGA | 1.17
CCTGTACCGC | 2.39
TATGCTTGTA | 1
TAACAAAAGG | 1.02
ACAGTGCGCA | 0.998
ACTTGTATCA | 0.973
TGGGTAGC | 0.954
CGCGAGAGGG | 1.01
GTCTATAGGC | 1.06
TCTTTTGAGT | 0.989
